Measurements taken from publication PMC4336329 (PLoS ONE, 2015).
Out of some 310,000 compounds screened, about 14,000 (4.5%) showed an effect of 50% or more. The effect is printed as a negative number. This is one part of the list.

biological target: human ether-à-go-go-related gene (hERG) potassium channel (human, UniProt Q12809); experiment: primary screen, population patch clamp on CHO cells stably expressing hERG
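Note: peak tail current of the secondary pulse compared with the same well before compound.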

Sequence of human ether-à-go-go-related gene (hERG) potassium channel (Q12809 whole entry, looked up): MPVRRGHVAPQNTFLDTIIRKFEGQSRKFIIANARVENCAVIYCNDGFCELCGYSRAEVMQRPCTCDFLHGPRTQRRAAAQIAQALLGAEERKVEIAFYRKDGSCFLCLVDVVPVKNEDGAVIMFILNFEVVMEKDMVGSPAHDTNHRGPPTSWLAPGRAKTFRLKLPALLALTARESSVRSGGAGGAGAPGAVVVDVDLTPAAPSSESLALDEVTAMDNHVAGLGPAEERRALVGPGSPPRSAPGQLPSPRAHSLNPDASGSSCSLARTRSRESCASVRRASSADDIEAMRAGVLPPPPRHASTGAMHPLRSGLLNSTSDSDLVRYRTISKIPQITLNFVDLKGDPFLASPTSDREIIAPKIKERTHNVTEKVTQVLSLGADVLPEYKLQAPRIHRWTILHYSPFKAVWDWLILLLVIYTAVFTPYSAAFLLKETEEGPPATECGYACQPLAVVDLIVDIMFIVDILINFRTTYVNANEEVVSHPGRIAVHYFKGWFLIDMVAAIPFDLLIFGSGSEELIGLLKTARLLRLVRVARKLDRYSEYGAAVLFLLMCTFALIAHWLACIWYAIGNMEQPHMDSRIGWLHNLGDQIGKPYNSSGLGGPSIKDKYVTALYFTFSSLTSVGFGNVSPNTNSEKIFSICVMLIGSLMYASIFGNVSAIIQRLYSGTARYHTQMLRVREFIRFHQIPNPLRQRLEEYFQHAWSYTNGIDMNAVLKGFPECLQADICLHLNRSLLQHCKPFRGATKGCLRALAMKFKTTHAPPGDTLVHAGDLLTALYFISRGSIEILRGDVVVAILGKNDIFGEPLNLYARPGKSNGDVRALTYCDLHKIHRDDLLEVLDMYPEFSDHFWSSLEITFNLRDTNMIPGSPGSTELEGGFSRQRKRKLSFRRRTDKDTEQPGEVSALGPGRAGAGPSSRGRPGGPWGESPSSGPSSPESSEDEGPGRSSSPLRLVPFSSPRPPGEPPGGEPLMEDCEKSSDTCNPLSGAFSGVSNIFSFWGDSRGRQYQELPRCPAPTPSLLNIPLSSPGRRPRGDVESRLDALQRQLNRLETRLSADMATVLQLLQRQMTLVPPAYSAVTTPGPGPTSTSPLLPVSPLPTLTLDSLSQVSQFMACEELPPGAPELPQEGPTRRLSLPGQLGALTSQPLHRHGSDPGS

Compound	hERG current change (%, negative = inhibition) at 10uM [%]
NC(=O)CCN1CCN(S(=O)(=O)/C=C/c2ccccc2)CC1	4.68
COc1ccccc1Nc1nc2cc(C)ccc2cc1C#N	3.81
NC(=S)Nc1ccc(Oc2ccc(NC(N)=S)cc2)cc1	12.8
CCN(Cc1ccccc1)S(=O)(=O)c1ccc(C(=O)N2CCN(c3nc4ccccc4s3)CC2)cc1	4.79
C=C(NC(C)=O)c1c(F)cccc1F	14.9
O=S(=O)(Cc1ccccc1)c1nc2ccccc2n1Cc1ccccn1	-0.831
CCOC(=O)C1=C(CNCc2ccccc2Cl)NC(=O)NC1c1cccc([N+](=O)[O-])c1 (centres unmarked)	-12.8
COc1ccc(/C(C)=N\Nc2nc(-c3ccc(Cl)cc3)cc(C(F)(F)F)n2)cc1OC	-9.16
Cc1nc2cccc(C(=O)Oc3ccc([N+](=O)[O-])cc3)c2o1	-25
O=C(Nc1cn(-c2ccccc2)nc1-c1cccs1)c1ccco1	-11.9
COc1ccc(N2CCN(S(=O)(=O)c3ccc4c(c3)CCCC4)CC2)c([N+](=O)[O-])c1	6.51
CCN1CCCc2cc(CN(CCN3CCOCC3)C(=S)Nc3ccccc3OC)ccc21	-11.3
Cn1c(=O)[nH]c(=O)c2c1nc(N1CCCCC1)n2CCSc1ncccn1	-0.771
CCC(NC(=O)Nc1nccs1)(C(F)(F)F)C(F)(F)F	-8.16
O=C(Nc1cccc2ncccc12)C12CC3CC(CC(C3)C1)C2	-6.2
O=C(CNC(=O)c1ccco1)N/N=C/c1cc(Br)ccc1O	18.2
O=C(C[n+]1ccccc1)Nc1nc2ccccc2s1.[Cl-]	0.223
CCC(C)C(NC(=O)c1ccccc1NC(=O)c1ccco1)C(=O)O (centres unmarked)	0.615
O=C(COC(=O)Cc1ccccc1)Nc1cc(S(=O)(=O)N2CCCCC2)ccc1Cl	-81.8
CCN(CC(=O)Nc1ccc2c(c1)OCCO2)C(=O)c1cc(Cl)nc2ccccc12	-8.58
c1ccc(-n2nnc3ccccc32)cc1	-8.05
CCc1nc2sc3c(c2c(=O)n1N)CCC3	15.7
Cc1ccc(SC(C)C(=O)Nc2ccccc2C(=O)N2CCOCC2)cc1 (centres unmarked)	3.02

Compound	hERG current change (%, negative = inhibition) at 10uM [%]
CCCN1Cc2cccc(C(=O)N3CCN(c4ccc(F)cc4)CC3)c2C1=O	-23
COc1ccc(CCN(C)C(=S)NC(=O)c2ccc(F)cc2Cl)cc1OC	-20.4
CCOc1ccc(C(=O)NCC2CCCO2)cc1OCC (centres unmarked)	35.6
O=C(C1Cc2ccccc2CN1C(=O)c1ccccc1)N1CCN(c2ccccc2)CC1 (centres unmarked)	-31.6
Cc1ccc(-c2noc(-c3cc(C(C)(C)C)nn3Cc3ccccc3)n2)cc1	6.65
CCOc1ccc(-n2cccc2C=O)cc1	-4.93
CSc1cc(C)n(-c2ccccc2)c(=S)c1C(C)=O	10.7
Cc1ccc(NC(=O)CCOc2ccccc2C)cc1F	14.3
O=C(COC(=O)c1ccc(Br)o1)Nc1ccc(Br)cc1	19
CN1N=C2c3ccccc3CCC2C1c1ccc(F)cc1 (centres unmarked)	4.84
COc1ccc(CN2CCN(S(=O)(=O)c3ccccc3)CC2)c(OC)c1OC	3.14
COc1ccc(C(=O)c2c(N)sc3c2CCN(C)C3)cc1	9.04
COc1ccc(COC(=O)CCNC(=O)c2ccc(Cl)cc2)cc1	-32.5
COc1ccc(/C=C(/C#N)C(=O)Nc2ccc(O)cc2)cc1C(=O)O	5.42
COc1nnc(-c2ccc(C)c(S(=O)(=O)NC(C)C)c2)c2ccccc12	-52.8
CCOC(=O)N1CCc2c(sc(NC(=O)CN3CCOCC3)c2C(=O)Nc2ccccc2)C1	-68.8
COc1ccc(N(C(=O)C(C)C)S(=O)(=O)c2cccs2)cc1	-14.4
CCOC(=O)C1(C)NC(c2cc(OC)c(OC)c(OC)c2)C2C(=O)N(CC)C(=O)C21 (centres unmarked)	10.1
Cn1c(=O)c2nc(-c3ccccc3)c(-c3ccccc3)nc2n(C)c1=O	-36.8
O=C(NC(=S)NCc1ccco1)c1ccccc1[N+](=O)[O-]	4.3
Cn1c2c(c3ccccc31)CCSC2=O	-9.31
Cc1oc(C(C)(C)C)cc1C(=O)NCc1ccc2c(c1)OCO2	13.9
Cc1ccccc1C(=O)NC1CCCN(Cc2ccccc2F)C1 (centres unmarked)	-6.98

Compound	hERG current change (%, negative = inhibition) at 10uM [%]
Cc1csc(CNC(=O)c2cc(COc3c(C)cccc3C)on2)n1	11.7
COc1ccccc1NC(=O)Nc1ccnn1C1CCN(C(=O)c2ccccn2)CC1	18.7
OCCNc1cnc2ccccc2n1	11.3
C=CCNc1oc(Cc2cccc3ccccc23)nc1C#N	-14.7
S=C(NCC1CCCO1)c1ccc(Br)cc1 (centres unmarked)	9.54
CC(=O)c1ccc(N2CCN(S(=O)(=O)c3c(C)[nH]c(=O)[nH]c3=O)CC2)cc1	24.3
CCCOc1ccc(C2=CSC3=NCCN23)cc1Cl	-67.8
Cc1ccc(-c2[nH]nc3c2C(C)C(C#N)=C(N)O3)cc1 (centres unmarked)	13.5
COc1ccc(Cl)cc1/C=C(\C#N)C(N)=O	15.3
Cc1ccc(S(=O)(=O)N2CCOCC2)cc1NC(=O)COc1ccc(C(=O)c2ccccc2)cc1	-41.8
Cc1c(NC(=O)c2ccccc2F)c(=O)n(-c2ccccc2)n1C	11.8
COc1cccc(CC(=O)NN2C(=O)NC3(CCCCC3)C2=O)c1	11.8
O=C(c1ccco1)N1N=C(c2cccs2)CC1c1ccc(F)cc1 (centres unmarked)	-29
O=C(/C=C/c1ccccc1)NC1CC2CCC1C2 (centres unmarked)	5.72
Cc1ccccc1NS(=O)(=O)c1ccc(NC(=O)c2nc3ncccn3n2)cc1	-2.17
COc1cccc(N2C(=O)C3CCCN3C2c2ccc(F)cc2)c1 (centres unmarked)	6.88
Cc1ccc(NS(=O)(=O)c2cccc(C(=O)N/N=C/c3c(C)nn(-c4ccccc4)c3N3CCCC3)c2)c(C)c1	2.92
CCn1c(O)c(C=C2N=c3ccccc3=N2)sc1=S	19.9
Cc1ccccc1NC(=O)COC(=O)CCc1c[nH]c2ccccc12	-0.38
O=[N+]([O-])c1ccc2nc(C(O)C(O)c3nc4ccc([N+](=O)[O-])cc4[nH]3)[nH]c2c1 (centres unmarked)	4.69
Nc1nnc(CC(=O)N/N=C/c2cccc(OCCOc3ccccc3)c2)s1	0.771
CC(=O)C1=C(O)C(=O)N(C)C1c1ccccc1F (centres unmarked)	16.3
CC(=O)NC1(C(F)(F)F)C(=O)NC(C)=C1C#N (centres unmarked)	-6.65

Compound	hERG current change (%, negative = inhibition) at 10uM [%]
CCOC(=O)Cc1nnc(NC(=O)CSc2nnc3c4ccccc4n(C(C)C)c3n2)s1	-35.8
CCNC(=O)N1c2ccc(OCC)cc2C(C)=CC1(C)C	-2.36
CCN(C(=O)c1ccc(Cl)cc1[N+](=O)[O-])c1ccccc1C	-0.0432
Cc1ccc(C)c(OCC(=O)Nc2ccc(N3CCOCC3)cc2)c1	0.741
COCCN1C(=O)N[C@@H](c2cccc(C(F)(F)F)c2)[C@@H](C(=O)OC)[C@H]1C	9.16
S=C(NCc1ccco1)N1CCN(c2nc(-c3ccc(Cl)cc3)cs2)CC1	0.846
COc1ccc(Cn2c(-c3ccc(Br)cc3)c[n+]3ccccc23)cc1.[Br-]	-8.08
CCOC(=O)c1nnn(-c2nonc2N)c1CSc1ccccn1	-1.78
CC1=N/C(=C/c2ccc([N+](=O)[O-])cc2)C(=O)N1c1ccc(Cl)cc1Cl	2.83
Cc1ccc(-c2nc(N)n(C(=O)c3cccnc3)n2)cc1	10.2
CCOc1ccc(CSC(=N)N)cc1[N+](=O)[O-].Cl	-65.5
O=c1[nH]c(=O)n([C@H]2C[C@H](O)[C@@H](CO)O2)cc1C(F)(F)F	11.9
C/C(=N/O)c1ccc(Oc2cnccn2)cc1	16.5
Cc1c(NC(=O)c2cc3ccccc3oc2=O)c(=O)n(-c2ccccc2)n1C	-5.53
Cc1ccc(C(=O)Nc2ccccc2C(=O)O)cc1NC(=O)COc1c(C)cccc1C	46.7
O=C(CSc1nc2ccccc2s1)N1c2ccccc2Sc2ccccc21	4.79
CC12CN3CC(C)(CN(C1)C3c1ccccc1)C2O (centres unmarked)	19.2
Nc1nc(SCc2ccc3c(c2)OCCO3)n[nH]1	19.6
COC(=O)C1CCN(C(=O)NC2CC(=O)N(c3ccc4c(c3)OCCO4)C2)CC1 (centres unmarked)	-25.9
Cn1c(-c2ccc(Cl)cc2)cnc1NCc1cc2c(cc1[N+](=O)[O-])OCO2.O=C(O)C(=O)O	-62.6
